Screen size: about 220,000 compounds; about 16,000 (7.3%) were called active. Inconclusive means that the source gave no clear call. Such entries were picked first, then a sample of the others. The call rests on the fitted dose curve; in most records, active means well fitted inhibition curve with a large enough effect (not every such curve was filed as active); inconclusive means small, poorly fitted or top-dose-only effect, or another doubt; inactive means no such curve, though single readings can be large or run the other way. Potencies of inconclusive entries are left out as doubtful fits.
target: Aldehyde dehydrogenase 1A1 (Homo sapiens) (UniProt P00352); experiment: qHTS Assay for Inhibitors of Aldehyde Dehydrogenase 1 (ALDH1A1); conditions: Purified ALDH1A1, NADH fluorescence, propionaldehyde substrate; series mostly up to 75.3 µM;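 on activity, negative = inhibition: plate controls were no enzyme wells and a reference inhibitor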
Potency means the concentration at half of the fitted maximal effect; tags describe the fitted curve by direction and shape.

Sequence of UniProt P00352 (P00352 whole entry, looked up): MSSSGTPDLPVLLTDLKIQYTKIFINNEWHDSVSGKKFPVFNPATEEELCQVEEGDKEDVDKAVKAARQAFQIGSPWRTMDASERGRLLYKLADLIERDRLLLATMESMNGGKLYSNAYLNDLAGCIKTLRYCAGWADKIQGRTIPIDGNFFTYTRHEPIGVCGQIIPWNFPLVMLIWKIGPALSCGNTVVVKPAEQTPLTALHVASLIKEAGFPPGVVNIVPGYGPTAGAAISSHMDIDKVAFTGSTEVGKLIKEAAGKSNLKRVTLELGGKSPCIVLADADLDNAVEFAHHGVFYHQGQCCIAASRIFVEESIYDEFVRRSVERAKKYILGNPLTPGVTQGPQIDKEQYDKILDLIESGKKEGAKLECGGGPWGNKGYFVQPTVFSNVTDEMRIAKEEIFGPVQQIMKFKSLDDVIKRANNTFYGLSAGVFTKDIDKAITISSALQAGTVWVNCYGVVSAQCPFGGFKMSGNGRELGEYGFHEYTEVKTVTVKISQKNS

Row | Compound | Potency | activity, negative = inhibition
1 | CCN(CC)S(=O)(=O)c1ccc(N/N=C/c2cc(OC)c(OC)cc2OC)nc1 | inconclusive [inhibitor, partial curve] | –
2 | Cc1ccc(C(=O)N2CCN(C(=O)c3ccccc3)C2c2ccc(N(C)C)cc2)cc1 (configuration not stated) | inconclusive [inhibitor, single point] | –
3 | Nc1c(-c2ccccc2)n[nH]c1-c1ccccc1 | inconclusive [inhibitor, partial curve] | –
4 | N#C/C(=C/c1ccc(N2CCCCC2)o1)C(=O)NCCc1c[nH]c2ccccc12 | inconclusive [inhibitor, single point] | –
5 | Cn1c(CNc2nc(-c3ccccc3)cs2)nnc1SCC(=O)N1CCc2ccccc21 | inconclusive [inhibitor, single point] | –
6 | O=C(Nc1c[nH]c(=O)[nH]c1=O)Oc1ccccc1 | inconclusive [inhibitor, single point] | –
7 | COc1cccc(CNC2CCCC2)c1 | inconclusive [inhibitor, single point] | –
8 | COc1ccc(OC)c(Cc2nnc(CCC(=O)NC3C4CC5CC(C4)CC3C5)o2)c1 (configuration not stated) | inconclusive [inhibitor, single point] | –
9 | CCOc1cc(C2NN=C(c3ccc(C)cc3)S2)ccc1O (configuration not stated) | inconclusive [inhibitor, single point] | –
10 | CC(C)[C@@H](CC(=O)N[C@@H]1CCCC[C@H]1C(=O)N[C@H](CC(=O)N[C@@H](CCC(=O)O)CC(=O)O)Cc1c[nH]c2ccccc12)NC(=O)C[C@H](Cc1ccccc1)NC(=O)[C@@H]1CCCC[C@H]1N | inactive | –
11 | COc1ccc(-c2nnn(CC(=O)N(c3cccc(O)c3)C(C)C(=O)NC3CCCC3)n2)cc1OC (configuration not stated) | inconclusive [inhibitor, single point] | –
12 | COCCNc1nnc(SCC(=O)Nc2sc3c(c2C(=O)c2ccccc2)CCCC3)s1 | active: 28.2 µM | –
13 | CCOc1ccc(CC(=O)Nc2ccc(-c3ccc4nnc(C)n4n3)cc2)cc1 | inconclusive [inhibitor, single point] | –
14 | O=C(CSc1nnc(COc2ccc(Cl)cc2)n1Cc1ccco1)c1ccccc1F | inconclusive [inhibitor, single point] | –
15 | Fc1ccccc1NC(=S)N/N=C/c1ccccc1Br | inconclusive [inhibitor, single point] | –
16 | COC(=O)c1nc(NC(=O)C(C)C)n[nH]1 | inconclusive [inhibitor, single point] | –
17 | O=C(NCc1nc2ccccc2[nH]1)C1=C[C@H](c2ccc3c(c2)OCO3)C[C@H](OCCCCO)O1 | inconclusive [inhibitor, partial curve] | –
18 | O=C(NCc1ccccc1)C(c1ccncc1)N(C(=O)c1csnn1)C1CC1 (configuration not stated) | inactive | –
19 | O=C(CCN1C(=O)C2C3C=CC(C3)C2C1=O)N1CCN(c2cccc(Cl)c2)CC1 (configuration not stated) | active: 7.94 µM | –
20 | Cc1cc(C)nc(N(C#N)CN2C(=O)c3ccccc3C2=O)n1 | active: 25.1 µM | –
21 | COc1ccccc1OCCC(=O)OCC(=O)Nc1cc(S(=O)(=O)N2CCOCC2)ccc1Cl | active: 6.31 µM | –
22 | CC(C)Sc1nc2ccccc2n1CC(=O)O | inconclusive [inhibitor, partial curve, poor fit] | –
23 | COc1ccc(CSc2nc(CSC)cc(N3CCOCC3)n2)cc1 | inconclusive [inhibitor, partial curve] | –
24 | COc1ccc(C(=O)NNc2ccccc2)cc1 | active: 28.2 µM | –

Row | Compound | Potency | activity, negative = inhibition
25 | CCOC(=O)c1cccc(N/C=C/C(=O)c2ccc(OC)c(OC)c2)c1 | inconclusive [inhibitor, single point] | –
26 | O=C(NCCC(c1ccccc1)c1ccccc1)c1cnc2sccn2c1=O | inconclusive [inhibitor, single point] | –
27 | COc1ccc(NC(=O)CN2CCCN(S(=O)(=O)c3ccc(F)cc3)CC2)c(OC)c1 | inactive | –
28 | N#CC1=C(SCC(=O)c2ccc(Cl)cc2)NC2=C(C(=O)CCC2)C1c1ccco1 (configuration not stated) | active: 28.2 µM | –
29 | COc1ccccc1/C=c1\sc2nc(-c3ccco3)nn2c1=O | inactive | –
30 | CCOC(=O)c1ccc(N2C(=O)c3n[nH]c(C)c3C2c2ccco2)cc1 (configuration not stated) | inconclusive [inhibitor, partial curve] | –
31 | CCCn1c(SCC(=O)N2CCCc3ccccc32)nnc1-c1ccccn1 | inconclusive [inhibitor, single point] | –
32 | COc1cccc(C2=CC(c3ccc(N(C)C)cc3)n3ncnc3N2)c1 (configuration not stated) | active: 10 µM | –
33 | N#Cc1nc(-c2ccccc2Cl)oc1N1CCCCC1 | inconclusive [inhibitor, partial curve] | –
34 | CCOC(=O)Cn1c(CN(Cc2ccccc2)Cc2ccccc2)nc2c1c(=O)[nH]c(=O)n2C | inconclusive [inhibitor, single point] | –
35 | COc1ccc(-c2nc(C#N)c(N3CCN(c4cccc(Cl)c4)CC3)o2)cc1OC | inconclusive [inhibitor, single point] | –
36 | NCCCCCCN | inactive | –
37 | Cc1noc(C)c1S(=O)(=O)N(CC(=O)NCc1ccc2c(c1)OCO2)c1ccc(C(C)C)cc1 | inconclusive [inhibitor, single point] | –
38 | O=C(CSc1ccncc1)Nc1ccc(S(=O)(=O)Nc2nccs2)cc1 | active: 10 µM | –
39 | NC(=O)C1CCN(C(=S)c2ccc(-c3ccc(Br)cc3)o2)CC1 | inactive | –
40 | O=[N+]([O-])c1cccc(-c2nnc(C34CC5CC(CC(C5)C3)C4)o2)c1 | inconclusive [inhibitor, full curve] | –
41 | COc1cc(/C=C/C(=O)c2ccc(NS(=O)(=O)c3ccc(C)cc3)cc2)ccc1OC(F)F | inactive | –
42 | CCN(CC)CCN1C(=O)C(O)=C(C(=O)c2cccs2)C1c1ccc(C)o1 (configuration not stated) | active: 22.4 µM | –
43 | COCC(=O)N(Cc1cc2ccccc2[nH]c1=O)c1ccc(OC)cc1 | active: 31.6 µM | –
44 | CC(=O)Nc1ccc(OCCC[n+]2ccccc2)cc1 | active: 2.51 µM | –
45 | CCNc1ncc2nc(-c3ccc(F)cc3)c(=O)n(-c3ccc(OC)cc3)c2n1 | inconclusive [inhibitor, partial curve] | –
46 | C=CCSc1nnc(CCCCCN2C(=O)c3cccc4cccc(c34)C2=O)o1 | inconclusive [inhibitor, partial curve] | –
47 | CC1(C)Cc2c(C#N)c(N)sc(=S)c2CO1 | active: 11.2 µM | –
48 | COCCCn1c(SCC(=O)Nc2sc3c(c2C#N)CCCC3)nnc1-c1ccncc1 | active: 20 µM | –

Row | Compound | Potency | activity, negative = inhibition
49 | O=C(c1ccccc1CCc1ccccc1)N1CCOCC1 | inconclusive [inhibitor, single point] | –
50 | COC(=O)c1cnn2c(C(F)(F)F)cc(-c3ccc(F)cc3)nc12 | inconclusive [inhibitor, partial curve] | –
51 | O=C(COc1ccc(S(=O)(=O)NC2CCCC2)cc1)NCC1CCCO1 (configuration not stated) | inactive | –
52 | CCCC1c2c(ccc3ccccc23)Oc2ccc3ccccc3c21 | – | inactive: -8.14% [at 13.5 µM]
53 | Cc1ccc(SCCCCN2C(=O)NC(C)(C)C2=O)cc1 | inconclusive [inhibitor, single point] | –
54 | CCCCN(CCCC)S(=O)(=O)c1ccc(NC(=O)c2cccs2)cc1 | inactive | –
55 | COc1cccc(CN=CC2=C(O)CC(C)(C)CC2=O)c1OC | inconclusive [inhibitor, single point] | –
56 | CCCCC[C@H](O)/C=C/C=C\CCCCCCCCCC(=O)O | inactive | –
57 | COc1ccc(N2CC(C)Cn3c2nc2c3c(=O)n(Cc3ccccc3)c(=O)n2C)c(OC)c1 (configuration not stated) | active: 31.6 µM | –
58 | COc1ccccc1N1CCN(C2CCCC(C)C2)CC1 (configuration not stated) | inconclusive [inhibitor, partial curve] | –
59 | Cc1ccc(N(CC(=O)NCC2CCCO2)S(C)(=O)=O)cc1Cl (configuration not stated) | inactive | –
60 | CC(=O)Nc1ccc(C(=O)CSc2nnnn2C(C)C)cc1 | inactive | –
61 | S=C1NCN2CCN(CC2)CNC(=S)C(=S)NCN2CCN(CC2)CNC1=S | inconclusive [inhibitor, partial curve, poor fit] | –
62 | COc1ccc(C)cc1NC(=O)CC(NC(C)=O)c1ccccc1 (configuration not stated) | inconclusive [inhibitor, single point] | –
63 | CCC(=O)Oc1oc(-c2ccccc2)nc1C=Nc1ccccc1OC | inconclusive [inhibitor, single point] | –
64 | COc1ccc(Br)cc1CNC(=O)C1CCN(S(=O)(=O)N2CCCC2)CC1 | inconclusive [inhibitor, partial curve] | –
65 | Cc1cc(NC(=O)CSc2nnc(-c3cccs3)n2N)no1 | inconclusive [inhibitor, partial curve] | –
66 | CCOCC(=O)N1CCN(c2cccc(Cl)c2)CC1 | active: 3.16 µM | –
67 | CC(C)OC(=O)c1cc(-c2ccc(C=O)o2)ccc1Cl | active: 8.91 µM | –
68 | CC1=CCC2C(=O)N(c3ccc(C(=O)N4CCCCCC4)cc3)C(=O)C2C1 (configuration not stated) | inconclusive [inhibitor, partial curve] | –
69 | O=C(CSc1nnc(COc2cccc3cccnc23)o1)N1CCCC1 | inactive | –
70 | CC(=O)N1CCN(Cc2nc3cc(NC(=O)C4CCCCC4)ccc3n2C)CC1 | inconclusive [inhibitor, single point] | –
71 | O=C(Cc1cccs1)NCc1cccs1 | inconclusive [inhibitor, single point] | –
72 | O=C(COc1ccc(Cl)cc1Cl)NCc1ccncc1 | inconclusive [inhibitor, single point] | –
